Some of the results follow.
T1: UNK ZnF1-3 (human, UniProt Q9C0B0 31-174)
T1 sequence: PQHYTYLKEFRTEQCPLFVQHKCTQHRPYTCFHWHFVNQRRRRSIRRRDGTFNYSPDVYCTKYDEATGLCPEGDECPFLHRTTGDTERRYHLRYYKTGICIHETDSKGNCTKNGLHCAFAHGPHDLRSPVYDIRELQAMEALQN

B1: 48767909_48768029_1087_ncRNA_ENSMUSG00000026761_ENSMUST00000141441|mouse|control|control (ssRNA)
RNA: GGGAGUUCUACAGUCCGACGAUCGCACUUCAAAAUGUUAAUACAGAUUAUUAAUGAAUGUAUCAAAACAUAAGAUAGUCCAUUAAUAUGUAUAGUUUUUAUAUGCAAAAUAGGCAUAAUACGUAUGUACUUAUACAUAAAAAACAACAGAGGAUUGAGCAUCA
B2: chr1:220276048:220276049:+_ENSG00000067704_ENST00000302637|hu_hu|hu_hu_hu_mus_True|28_38 (ssRNA)
RNA: GGGAGUUCUACAGUCCGACGAUCGCAAAUUGCCUGGUUGGCGGGAAUUGUCCAAGGCUGGGUGGUCCAAACUAAAACGCUAACAGGGGAUGAGGCAUCUAUAAGAGAUGCCAAUUUCGGAGGAGGUCUCAGGAGGGGGAAUCUCAACAGAGGAUUGAGCAUCA
B3: chr3:179287964:179287965:+_ENSG00000136518_ENST00000429709|hu_hu|hu_hu_hu_mus_True|8_88 (ssRNA)
RNA: GGGAGUUCUACAGUCCGACGAUCCUUGAGUGGUGAGAUGGCCUCCAUAUUCUCCCUGGGCACGCGGAGGGCAUUGGUGUCUAUGUAGUAGGUGGGCCCGCCCUGCUUGCCUUUGUCACCAUCAAUCUCCAUUAAUGUACUUCCCAACAGAGGAUUGAGCAUCA
B4: chr17:57743871:57743872:+_ENSG00000141367_ENST00000269122|hu_mus|FALSE|FALSE (ssRNA)
RNA: GGGAGUUCUACAGUCCGACGAUCCAGCAGGCCCGCCUUCUCACACAGCUGGGCGAUAUGAGCCCGGUCAUAGUGGGUGAACAUCUGAUUCCCGAGAAUGGCAUCUGCAACUUGAGGUGCGUGCAUAAGGUUCAUCUCAAGCAACAACAGAGGAUUGAGCAUCA
B5: chr5:137520266:137520267:+_ENSG00000112984_ENST00000394894|hu_mus|FALSE|FALSE (ssRNA)
RNA: GGGAGUUCUACAGUCCGACGAUCCUCAAGGUCUGAGUCGGCCUUGUCCUCUUUCUCUAAGCCAGGGCCAACCUGAGGACUGUGCUUCUUGAUGAAUGAAUGCAGGGAUGGGAUUCCCAGAUGCACAGGUGGGGCGUGCACAAGCAACAGAGGAUUGAGCAUCA
B6: chr12:39756943:39756944:-_ENSG00000139116_ENST00000544797|hu_mus|hu_hu_hu_mus_False|58_58 (ssRNA)
RNA: GGGAGUUCUACAGUCCGACGAUCGGUUUGGCUGUUACCCCCAAGGGAAUCCUGCAAGAGUCUUGUCAGCUUAGAGUCUCUAUAGGGGACAUGGGUGGCUCUCUUGCUCUUGUCCCCCAAGGCGCUGAUUACAUUCCCAAGAGCCAACAGAGGAUUGAGCAUCA
B7: chr4:130382032:130382033:+_ENSMUSG00000025743_ENSMUST00000070478|mus_hu|FALSE|FALSE (ssRNA)
RNA: GGGAGUUCUACAGUCCGACGAUCGGCAGGCGCCUUGGUCUCUUUUUUCCACUGUCUUUUUCUUUUGUUUUUCUUAUUUAAGGUUUUGGCCAUGAACUCAGGACAGGUAUGGUUAAUAAACAGGUUACAGGGGAGAGAAGGGGCCAACAGAGGAUUGAGCAUCA
B8: chr3:176767854:176767855:-_ENSG00000177565_ENST00000430069|hu_hu|hu_hu_hu_mus_False|88_88 (ssRNA)
RNA: GGGAGUUCUACAGUCCGACGAUCGACAUCCUUGUUACUGGGCACGUCUUGCCCUCCUUCCCGUAUGCAGUGUCUAAGCACGAGCUGCGUAGGGCCACUCGUGCUGUUCUCACUGAGGUUCCAGAUUCUUGCCGUGGAGUCUCCCAACAGAGGAUUGAGCAUCA
B9: chrX:101156880:101156881:-_ENSMUSG00000056537_ENSMUST00000070705|mus_hu|FALSE|FALSE (ssRNA)
RNA: GGGAGUUCUACAGUCCGACGAUCAGGAAAACUUUAAAUUCUUCAGUUUUCUUUACUCCUCCCAUAUUUCACUUCCUGCCUAAAUCCAAGUUAAAUUAUACAAUUUCCACUGGUCUUCAACACGGUUUAAUUCUGCACUGUCCUCAACAGAGGAUUGAGCAUCA
B10: 63986605_63986725_5413_CDS_ENSG00000103657_ENST00000443617|human|control|control (ssRNA)
RNA: GGGAGUUCUACAGUCCGACGAUCGGGCUGUCCUAGCAUGGUGUCUGUACCACACAACUGUGACAAUACGUUUAGCAGACCAGUGGAAAUUGCCAAAGAAACAUCUACUGGUUGAUAAUGAACACUUAGGGCAAAAACUGUAACCAACAGAGGAUUGAGCAUCA
B11: chr15:85259290:85259291:-_ENSG00000140612_ENST00000559729|hu_mus|motif|central (ssRNA)
RNA: GGGAGUUCUACAGUCCGACGAUCAUUUAGGACUUGGUAGUACAGCUGCCUCUUGUUCAUCCGCCGCACAUCGUCGGGAAAGUCGGGAGACAGCAUGGUGAGAUGGAGAGCGCGACAACUAGCAGCCAAGAGGGCGCGAUAGAACAACAGAGGAUUGAGCAUCA
B12: chr4:174295105:174295106:+_ENSG00000164105_ENST00000296504|hu_hu|motif|central (ssRNA)
RNA: GGGAGUUCUACAGUCCGACGAUCUUGUGCUUUAUUAAGUCCUGGUCUGGUUGGUAGCUUGAAGUGUCUUUUGUAUCUCCGGAGUGUAUUUACUUGUAAUUGGUAUAAAUCAACCUCUGGGGUAUCAAUAUCUUGAACAGGUGACAACAGAGGAUUGAGCAUCA
B13: chr16:94651144:94651145:+_ENSMUSG00000040785_ENSMUST00000117648|mus_hu|mus_mus_mus_hu_True|28_98 (ssRNA)
RNA: GGGAGUUCUACAGUCCGACGAUCAUUUUCUUGAAUCAAGUGACCGAUAACAUAGUCCACUGCUUCAUUUAGAAAAUUUCUGCUAGAAAAACAGGUUGUAUAGUCUUCCGUGCUCAGAACUUUCCAAGAAAGCAAUUCUUUGAGCAACAGAGGAUUGAGCAUCA
B14: chr8:126347721:126347722:+_ENSMUSG00000019478_ENSMUST00000118535|mus_mus|FALSE|FALSE (ssRNA)
RNA: GGGAGUUCUACAGUCCGACGAUCCUGAUGAAGCAAGCAAGAUUUGCCAGUUCCCGCAUUUCCGAUGACCAAGAAUUUAAACAAGAAAUCGUAAGUCUCGGACAUGGCGGUCUGCGCCAUUCUGCCGCCACAGCUCCGCGGGGUCAACAGAGGAUUGAGCAUCA

Each binder was assayed against T1, UNK ZnF1-3 (assay: nsRBNS (natural sequence RNA bind-n-seq); RBNS binding buffer (assumed for nsRBNS): 25 mM Tris pH 7.5, 150 mM KCl, 3 mM MgCl2, 0.01% Triton X-100, 500 ug/ml BSA, 20 U/ml SUPERase-In, 4 C; UNK is unkempt and MSI1 is Musashi-1; names of the RNAs are library labels; protein concentration not given here; high values mean tight binding).
With B1 the binding signal was 0.897 enrichment R.
For B2, the binding signal was 2.67 enrichment R.
Work on B3 yielded a binding signal of 0.724 enrichment R.
B4 showed a binding signal of 0.995 enrichment R.
Binder B5 has a binding signal of 1.42 enrichment R.
Binder B6 has a binding signal of 0.784 enrichment R.
B7 showed a binding signal of 1.31 enrichment R.
Work on B8 yielded a binding signal of 0.387 enrichment R.
Binder B9 has a binding signal of 1.14 enrichment R.
B10 gave a binding signal of 0.866 enrichment R.
Work on B11 yielded a binding signal of 0.994 enrichment R.
B12 gave a binding signal of 0.898 enrichment R.
Work on B13 yielded a binding signal of 0.461 enrichment R.
Work on B14 yielded a binding signal of 1.29 enrichment R.

Source: PMC12136788
